Data: paper PMC3040723, “Three hydrophobic amino acids in Escherichia coli HscB make the greatest contribution to the stability of the HscB-IscU complex” (BMC Biochemistry, 2011)

Assays:
Assay in all cases: ITC; 2.5-4 mM apo-IscU (injection syringe) titrated into 0.25-0.4 mM HscB (sample cell); 25 °C; 50 mM HEPES pH 7.5, 150 mM NaCl, 4 mM TCEP
Conditions in all cases: both partners purified
HscB(F153A) = target: T1, HscB(F153A) (E. coli, UniProt P0A6L9 1-171, F153A)
T1 construct: HscB, Escherichia coli, single alanine substitution; source: Escherichia coli, purified (DEAE-cellulose, size exclusion chromatography)
T1 sequence (looked up): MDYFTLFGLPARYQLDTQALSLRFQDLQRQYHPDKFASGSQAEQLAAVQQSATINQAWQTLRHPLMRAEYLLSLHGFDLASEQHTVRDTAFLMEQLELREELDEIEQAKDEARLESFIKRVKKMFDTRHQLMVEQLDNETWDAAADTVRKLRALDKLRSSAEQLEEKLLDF

HscB(R152A) = target: T2, HscB(R152A) (E. coli, UniProt P0A6L9 1-171, R152A)
T2 construct: HscB, Escherichia coli, single alanine substitution; source: Escherichia coli, purified (DEAE-cellulose, size exclusion chromatography)
T2 sequence (looked up): T1 sequence (looked up) with R152A, A153F

HscB(E100A) = target: T3, HscB(E100A) (E. coli, UniProt P0A6L9 1-171, E100A)
T3 construct: HscB, Escherichia coli, single alanine substitution; Uniformly 15N-labelled for the NMR experiments; source: Escherichia coli, purified (DEAE-cellulose, size exclusion chromatography)
T3 sequence (looked up): T1 sequence (looked up) with E100A, A153F

HscB(K156A) = target: T4, HscB(K156A) (E. coli, UniProt P0A6L9 1-171, K156A)
T4 construct: HscB, Escherichia coli, single alanine substitution; source: Escherichia coli, purified (DEAE-cellulose, size exclusion chromatography)
T4 sequence (looked up): T1 sequence (looked up) with A153F, K156A

HscB(E97A, E100A, E104A) = target: T5, HscB(E97A, E100A, E104A) (E. coli, UniProt P0A6L9 1-171, E97A | E100A | E104A)
T5 construct: HscB, Escherichia coli, triple alanine substitution; also called (E97A, E100A, E104A) substitution; source: Escherichia coli, purified (DEAE-cellulose, size exclusion chromatography)
T5 sequence (looked up): T1 sequence (looked up) with E97A, E100A, E104A, A153F

HscB(R99A) = target: T6, HscB(R99A) (E. coli, UniProt P0A6L9 1-171, R99A)
T6 construct: HscB, Escherichia coli, single alanine substitution; source: Escherichia coli, purified (DEAE-cellulose, size exclusion chromatography)
T6 sequence (looked up): T1 sequence (looked up) with R99A, A153F

HscB(L96A) = target: T7, HscB(L96A) (E. coli, UniProt P0A6L9 1-171, L96A)
T7 construct: HscB, Escherichia coli, single alanine substitution; Uniformly 15N-labelled for the NMR experiments; source: Escherichia coli, purified (DEAE-cellulose, size exclusion chromatography)
T7 sequence (looked up): T1 sequence (looked up) with L96A, A153F

HscB(M93A) = target: T8, HscB(M93A) (E. coli, UniProt P0A6L9 1-171, M93A)
T8 construct: HscB, Escherichia coli, single alanine substitution; source: Escherichia coli, purified (DEAE-cellulose, size exclusion chromatography)
T8 sequence (looked up): T1 sequence (looked up) with M93A, A153F

B1: apo-IscU (natural protein, E. coli, UniProt P0ACD4 1-128, looked up)
chain: MAYSEKVIDHYENPRNVGSFDNNDENVGSGMVGAPACGDVMKLQIKVNDEGIIEDARFKTYGCGSAIASSSLVTEWVKGKSLDEAQAIKNTDIAEELELPPVKIHCSILAEDAIKAAIADYKSKREAK
notes: No tag is mentioned; purified by ion exchange and gel filtration, so probably untagged whole protein; source: Escherichia coli, purified (DEAE-cellulose, DEAE-Biogel, size exclusion chromatography)
HscB(F153A)
  Kd: ~200 µM
HscB(R152A)
  Ka: 65000 M⁻¹
  dH: -1.34 kcal/mol
  stoichiometry N: 1.09
HscB(E100A)
  Ka: 24000 M⁻¹
  dH: -2.22 kcal/mol
  stoichiometry N: 0.91
HscB(K156A)
  Ka: 259000 M⁻¹
  dH: -2.64 kcal/mol
  stoichiometry N: 0.93
HscB(E97A, E100A, E104A)
  Ka: 33000 M⁻¹
  dH: -1.73 kcal/mol
  stoichiometry N: 0.68
HscB(R99A)
  Ka: 19000 M⁻¹
  dH: 1.18 kcal/mol
  stoichiometry N: 0.69
HscB(L96A)
  Ka: 5000 M⁻¹
  dH: -3.6 kcal/mol
  stoichiometry N: 0.44
HscB(M93A)
  Ka: 255000 M⁻¹
  dH: -1.25 kcal/mol
  stoichiometry N: 0.83

Substitutions are numbered along the chain they refer to.
